The other results are listed elsewhere or left out.
T1: UNK ZnF1-3 (human, UniProt Q9C0B0 31-174)
T1 sequence: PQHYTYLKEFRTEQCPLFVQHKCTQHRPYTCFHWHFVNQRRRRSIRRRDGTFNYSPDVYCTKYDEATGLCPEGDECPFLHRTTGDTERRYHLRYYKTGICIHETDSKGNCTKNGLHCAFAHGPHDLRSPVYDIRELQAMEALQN

B1: chr3:10015032:10015033:+_ENSMUSG00000027533_ENSMUST00000029046|mus_mus|mus_mus_mus_hu_True|18_28 (ssRNA)
RNA: GGGAGUUCUACAGUCCGACGAUCGUUUUUACCAUCACAAGUGAUGAUACAAUCUGGCUUGGCCAUUGCGCCCAUUUUUCGCAAAGCUAUUCCCACUCCUAGCUCCUUCAUGUACUCCUCAAAGCCGUUGCUGUCCACCAGGCGCAACAGAGGAUUGAGCAUCA
B2: chr5:65987834:65987835:+_ENSMUSG00000029203_ENSMUST00000142407|mus_hu|FALSE|FALSE (ssRNA)
RNA: GGGAGUUCUACAGUCCGACGAUCCAUCCACAUUUUCACACAAUCCCACCUUACUUCAAAAUAUAAAGUACGAGGUUUCAGGUAUUUAAAAUAAAUAAAGAAAAAUCUUGUUUCCUUUGGCAUCUUUAGAAAAUAAACUACAGCCAACAGAGGAUUGAGCAUCA
B3: chr1:130485734:130485735:-_ENSMUSG00000045382_ENSMUST00000052172|mus_mus|mus_mus_mus_hu_False|38_78 (ssRNA)
RNA: GGGAGUUCUACAGUCCGACGAUCGAUGAAGGAGUCGAUGCUGAUCCCAAUGUAGUAUGGCAGCCAGCAGGCGAAGAAAGCCAGGAUGAGGAUGACUGUCGUCUUGAGGGCCUUGCGCUUCUGGUGGCCCUUGGAGUGUGACAGCAACAGAGGAUUGAGCAUCA
B4: chr12:42180722:42180723:-_ENSMUSG00000036295_ENSMUST00000043884|mus_hu|mus_mus_mus_hu_True|18_58 (ssRNA)
RNA: GGGAGUUCUACAGUCCGACGAUCCUGUAGGAGAAGAAUCUGUGUGUUAGCUGGCAAUCUGGCUGGGAAAGUUAAAAGCCCUAAAUCAUUACAAUCCACUGUAGAUGCUUCCAUAUAGAUGGAUCUCGGUGUAAACCAAGGCCUCAACAGAGGAUUGAGCAUCA
B5: chr15:79941026:79941027:+_ENSMUSG00000022415_ENSMUST00000009727|mus_mus|FALSE|FALSE (ssRNA)
RNA: GGGAGUUCUACAGUCCGACGAUCCUUCUUGCGGUCCUUGACACUGCUGAUCUGCGGGAAGUACACAUCGAGCGCCAGGUAGAGCAGGCAGGUGAGGAAGGCCAACACACCCACAGUCACACCGUAGCUGCAGGCAUUGGGGUUCAACAGAGGAUUGAGCAUCA
B6: chr10:33190432:33190433:-_ENSG00000150093_ENST00000302278|hu_mus|hu_hu_hu_mus_True|8_108 (ssRNA)
RNA: GGGAGUUCUACAGUCCGACGAUCUACAUUUUCAAAACCUGCAUGUGAAUAAAACCCUGGCCACAGAGCCCCAAAACUACCCUACUGUGACUAAGAUGCUGCUGCUGUGAGCUUGGUGUUGCAAAAUUUUGCACGGGAGGAUUCCAACAGAGGAUUGAGCAUCA

Each binder was assayed against T1, UNK ZnF1-3 (assay: nsRBNS (natural sequence RNA bind-n-seq); RBNS binding buffer (assumed for nsRBNS): 25 mM Tris pH 7.5, 150 mM KCl, 3 mM MgCl2, 0.01% Triton X-100, 500 ug/ml BSA, 20 U/ml SUPERase-In, 4 C; UNK is unkempt and MSI1 is Musashi-1; names of the RNAs are library labels; protein concentration not given here; high values mean tight binding).
Binder B1 has a binding signal of 0.68 enrichment R.
B2 showed a binding signal of 1.66 enrichment R.
B3 was tested, and the binding signal was 0.909 enrichment R.
Binder B4 has a binding signal of 1.04 enrichment R.
Binder B5 has a binding signal of 1.22 enrichment R.
Binder B6 has a binding signal of 1.57 enrichment R.
